Our source for the IC50 values is patent US20230159453A1 (COCRYSTAL PHARMA, INC., priority 2020, published 2023).

A word on the IC50: it is the concentration at which inhibition is half-maximal. A high value points to a need for much substance.

This test deals with Noro protease (Norovirus, UniProt Q83883). Description: Norovirus protease inhibition assay (Noro-Norwalk FRET protease assay). Conditions: IC50 (μM), peptide substrate 10 μM, 90 minutes at 37° C., compounds 200 μM to 10.2 nM.
For `CC(C)(c1cccc(Cl)c1)C(OC(=O)N[C@@H](CC1CCCCC1)C(=O)N[C@H](C=O)C[C@@H]1CCNC1=O)c1ccccc1` (stereo partly drawn) [Compound C110, 2-(3-Chlorophenyl)-2-methyl-1-phenylpropyl ((S)-3-cyclohexyl-1-oxo-1-(((S)-1-oxo-3-((S)-2-oxopyrrolidin-3-yl)propan-2-yl)amino)propan-2-yl) carbamate], the midpoint of inhibition, the IC50, lay at 1.3 µM. In other words, the single-digit micromolar range.
The value for `CC(C)(COC(=O)N[C@H](C(=O)N[C@@H](C[C@@H]1CCNC1=O)C(O)S(=O)(=O)O)C(C)(C)C)c1cccc(Cl)c1` (stereo partly drawn) [Compound C111, Sodium (2S)-2-((S)-2-(((2-(3-chlorophenyl)-2-methylpropoxy)carbonyl)amino)-3,3-dimethylbutanamido)-1-hydroxy-3-((S)-2-oxopyrrolidin-3-yl)propane-1-sulfonate] was 40.7 µM.
Molecule `CC(=O)N1CCC2(CC1)CC(CC(NC(=O)[C@@H](CC1CCCCC1)NC(=O)c1cc3ccccc3[nH]1)C(=O)C(N)=O)C(=O)N2` (stereo partly drawn) [Compound C112, N-((2R)-1-((1-(8-acetyl-2-oxo-1,8-diazaspiro[4.5]decan-3-yl)-4-amino-3,4-dioxobutan-2-yl)amino)-3-cyclohexyl-1-oxopropan-2-yl)-1H-indole-2-carboxamide] gave an IC50 of 109 µM.
The value for `CC(C)(c1cccc(Cl)c1)C(OC(=O)N[C@@H](CC1CCCCC1)C(=O)N[C@@H](C[C@@H]1CCNC1=O)C(=O)C(N)=O)c1ccccc1` (stereo partly drawn) [Compound C113, 2-(3-Chlorophenyl)-2-methyl-1-phenylpropyl ((S)-1-(((S)-4-amino-3,4-dioxo-1-((S)-2-oxopyrrolidin-3-yl)butan-2-yl)amino)-3-cyclohexyl-1-oxopropan-2-yl) carbamate] was 105 µM; that for `CC(C)C[C@H](NC(=O)OC(Cc1cccc(Cl)c1)c1ccccc1)C(=O)N[C@@H](C[C@@H]1CCNC1=O)C(O)S(=O)(=O)O` (stereo partly drawn) [Compound C114, Sodium (2S)-2-((2S)-2-(((2-(3-chlorophenyl)-1-phenylethoxy)carbonyl)amino)-4-methylpentanamido)-1-hydroxy-3-((S)-2-oxopyrrolidin-3-yl) propane-1-sulfonate] was 1.7 µM.
The value for `O=C(N[C@@H](CC1CCCCC1)C(=O)N[C@@H](C[C@@H]1CCNC1=O)C(O)S(=O)(=O)O)OC(Cc1cccc(Cl)c1)c1ccccc1` (stereo partly drawn) [Compound C115, Sodium (2S)-2-((2S)-2-(((2-(3-chlorophenyl)-1-phenylethoxy)carbonyl)amino)-3-cyclohexylpropanamido)-1-hydroxy-3-((S)-2-oxopyrrolidin-3-yl)propane-1-sulfonate] was 2.2 µM.
With `NC(=O)C(=O)[C@H](C[C@@H]1CCNC1=O)NC(=O)[C@H](CC1CCCCC1)NC(=O)OC(Cc1cccc(Cl)c1)c1ccccc1` (stereo partly drawn) [Compound C116, 2-(3-Chlorophenyl)-1-phenylethyl ((S)-1-(((S)-4-amino-3,4-dioxo-1-((S)-2-oxopyrrolidin-3-yl)butan-2-yl)amino)-3-cyclohexyl-1-oxopropan-2-yl)carbamate], the IC50 worked out at 98.1 µM.
The value for `COc1cccc2[nH]c(C(=O)N[C@@H](CC3CCCCC3)C(=O)NC(CC3CC4(CCN(C(C)=O)CC4)NC3=O)C(=O)C(N)=O)cc12` (stereo partly drawn) [Compound C117, N-((2S)-1-((1-(8-Acetyl-2-oxo-1,8-diazaspiro[4.5]decan-3-yl)-4-amino-3,4-dioxobutan-2-yl)amino)-3-cyclohexyl-1-oxopropan-2-yl)-4-methoxy-1H-indole-2-carboxamide] was 77.7 µM; that for `CC(C)C(C)(C)C(NC(=O)OCc1ccccc1)C(=O)N[C@H](C=O)C[C@@H]1CCNC1=O` (stereo partly drawn) [Compound C118, Benzyl (3,3,4-trimethyl-1-oxo-1-(((S)-1-oxo-3-((S)-2-oxopyrrolidin-3-yl)propan-2-yl)amino)pentan-2-yl)carbamate] was 119 µM; that for `NC(=O)C(=O)C(CC1CC2(CCCCC2)NC1=O)NC(=O)[C@H](CC1CCCCC1)NC(=O)c1cc2ccccc2[nH]1` (stereo partly drawn) [Compound C119, N-((2S)-1-((4-amino-3,4-dioxo-1-(2-oxo-1-azaspiro[4.5]decan-3-yl)butan-2-yl)amino)-3-cyclohexyl-1-oxopropan-2-yl)-1H-indole-2-carboxamide] was 67.6 µM.
In turn, `CC(C)(c1cccc(Cl)c1)C(OC(=O)N[C@@H](CC1CCCCC1)C(=O)N[C@@H](C[C@@H]1CCNC1=O)C(=O)C(N)=O)c1cccc(F)c1` (stereo partly drawn) [Compound C120, 2-(3-Chlorophenyl)-1-(3-fluorophenyl)-2-methylpropyl ((S)-1-(((S)-4-amino-3,4-dioxo-1-((S)-2-oxopyrrolidin-3-yl)butan-2-yl)amino)-3-cyclohexyl-1-oxopropan-2-yl) carbamate] came in with an IC50 of 62.6 µM.
The value for `CC(=O)N1CCC2(CC1)C[C@@H](C[C@H](NC(=O)[C@H](CC1CCCCC1)NC(=O)c1cc3ccccc3[nH]1)C(=O)C(N)=O)C(=O)N2` [Compound C121, N—((S)-1-(((S)-1-((R)-8-acetyl-2-oxo-1,8-diazaspiro[4.5]decan-3-yl)-4-amino-3,4-dioxobutan-2-yl)amino)-3-cyclohexyl-1-oxopropan-2-yl)-1H-indole-2-carboxamide] was 107 µM.
The value for `CC(C)(c1cccc(Cl)c1)C(OC(=O)N[C@@H](CC1CCCCC1)C(=O)N[C@@H](C[C@@H]1CCNC1=O)C(=O)C(N)=O)c1ccc2ccccc2c1` (stereo partly drawn) [Compound C122, 2-(3-Chlorophenyl)-2-methyl-1-(naphthalen-2-yl)propyl ((S)-1-(((S)-4-amino-3,4-dioxo-1-((S)-2-oxopyrrolidin-3-yl)butan-2-yl)amino)-3-cyclohexyl-1-oxopropan-2-yl)carbamate] was 35.2 µM.
The value for `CC1(C)CC(CC(NC(=O)[C@H](CC2CCCCC2)NC(=O)c2cc3ccccc3[nH]2)C(=O)C(N)=O)C(=O)N1` (stereo partly drawn) [Compound C123, N-((2S)-1-((4-amino-1-(5,5-dimethyl-2-oxopyrrolidin-3-yl)-3,4-dioxobutan-2-yl)amino)-3-cyclohexyl-1-oxopropan-2-yl)-1H-indole-2-carboxamide] was 121 µM.
Molecule `Cc1cccc(C(OC(=O)N[C@@H](CC2CCCCC2)C(=O)N[C@@H](C[C@@H]2CCNC2=O)C(=O)C(N)=O)C(C)(C)c2cccc(Cl)c2)c1` (stereo partly drawn) [Compound C124, 2-(3-chlorophenyl)-2-methyl-1-(m-tolyl)propyl ((S)-1-(((S)-4-amino-3,4-dioxo-1-((S)-2-oxopyrrolidin-3-yl)butan-2-yl)amino)-3-cyclohexyl-1-oxopropan-2-yl) carbamate] registered an IC50 of 36.5 µM.
The same measure for `CC(=O)N1CCC2(CC1)C[C@H](C[C@H](NC(=O)[C@H](CC1CCCCC1)NC(=O)c1cc3ccccc3[nH]1)C(=O)C(N)=O)C(=O)N2` [Compound C125, N—((S)-1-(((S)-1-((S)-8-acetyl-2-oxo-1,8-diazaspiro[4.5]decan-3-yl)-4-amino-3,4-dioxobutan-2-yl)amino)-3-cyclohexyl-1-oxopropan-2-yl)-1H-indole-2-carboxamide]: 47.2 µM.
The same measure for `CC(=O)N1CCC2(CC1)CC(CC(NC(=O)[C@H](CC1CCCCC1)NC(=O)c1cc3cc(Cl)ccc3[nH]1)C(=O)C(N)=O)C(=O)N2` (stereo partly drawn) [Compound C126, N-((2S)-1-((1-(8-acetyl-2-oxo-1,8-diazaspiro[4.5]decan-3-yl)-4-amino-3,4-dioxobutan-2-yl)amino)-3-cyclohexyl-1-oxopropan-2-yl)-5-chloro-1H-indole-2-carboxamide]: above 200 µM.
